Assay results from the RNAGym collection of RNA variant scans (doi:10.7554/elife.90254).
Read counts are not given, so values of variants with three or more changes are uncertain.

B1: LINE1-full (parent)
chain: UACGUAGGUGGUUUUCCCCUGAUAGUGCUAAGGGGGCCUGGAAGUUUGGACUGGGCAGAGCUCAACACAGCGUGGCAAAGUGGCUGUGGCUAGACUGCCUCUCUGGAUUCCUCGUCACUCAGCAGGGCAUCUCUGAGAGAAAUGCC

Variants of: B1
Experiment: self-cleavage, relative activity (ratio to wild type); higher = more cleavage; in vitro, sequencing; the parent is a self-cleaving ribozyme
With U52C A138G A142G the self-cleavage was 1.44. Variant U52C C68U A124C A129G A136G has a self-cleavage of 0.2. For U52C U119A C145A, the self-cleavage was 1.93. Variant A50U A79G U130C has a self-cleavage of 0.89. A57U U119C A136G gave a self-cleavage of 0.21. Work on A57U C66U A136G yielded a self-cleavage of 0.02. In the case of C51U A78G A92G A94G A124G, the self-cleavage is reported as 0. In the case of A57G U73C A117U U119C G122A, the self-cleavage is reported as 1.74. A57U A77U C120A showed a self-cleavage of 0.11. For C51U G75C A79G U109A U132A, the self-cleavage was 0.48. A57G U73A U115C U132C showed a self-cleavage of 0.72. For U52C A69U A78G, the self-cleavage was 0.12. Variant A57G U119C A129U has a self-cleavage of 1.62. C56U A129G U130C showed a self-cleavage of 0.34. With A57U A79G A107G A141G the self-cleavage was 0. With U52A U62C A94C C133A the self-cleavage was 0. With A57G A77G G106U G125A U132C the self-cleavage was 1.29. With A57U A142U C146U the self-cleavage was 0.1. For A50U U102A U104A A117C A121G A124G, the self-cleavage was 1.53. With U52A A64U U119A A141G the self-cleavage was 0.58. For U52A A79G A140G, the self-cleavage was 0.99. In the case of A57G A69U A107U, the self-cleavage is reported as 0.03. Variant U52A A79G G125U has a self-cleavage of 1.16. Variant U52C A59G C113U has a self-cleavage of 0.09. With G54A A78G U85A the self-cleavage was 0.03. U52C A67G U132G showed a self-cleavage of 1.15. For A57G A94G C116G, the self-cleavage was 0.09. Variant A57U A69U U96A has a self-cleavage of 0.06. With U52A A69G C98U the self-cleavage was 0.02. Work on G53U U62A U143A yielded a self-cleavage of 0.02. With U52A U85C C113U the self-cleavage was 0.11. C56U U115C U134A showed a self-cleavage of 0.22. U52A U109A U115A gave a self-cleavage of 1.29. Variant U52C A67G G74A A117U has a self-cleavage of 0.25. With U52A U102C U119C the self-cleavage was 0.48. Work on A57U U73C A121U yielded a self-cleavage of 0.11. With G55A U108C A121G the self-cleavage was 0.73. For U52A G54A U115C A121G A138G, the self-cleavage was 0.97. A50U C63U A129G showed a self-cleavage of 0.31. In the case of A50U C63U G106C, the self-cleavage is reported as 0.13. A57U A107U A142G gave a self-cleavage of 0.19. With C51U A94G A138G the self-cleavage was 0.1. In the case of G54U U62A A78G U81A A117U, the self-cleavage is reported as 0.03. In the case of A57U U62C A64G G72A A79C A121U, the self-cleavage is reported as 0.02. Work on U52C U62C G72A C95U A121U yielded a self-cleavage of 0. C56U C98A A136G A140G gave a self-cleavage of 0.05. In the case of A57U U112C A136U, the self-cleavage is reported as 0.13. With A50U U109C A121U the self-cleavage was 0.73. In the case of G53A A64G A124G, the self-cleavage is reported as 0.17. A57G U108C A141G gave a self-cleavage of 1.93. U52C A59G A121G showed a self-cleavage of 0. In the case of G55A C99G U132C, the self-cleavage is reported as 0.04. G58A A77U A142G showed a self-cleavage of 0. G58A A78G U119C showed a self-cleavage of 0. In the case of A57U A67G A94G, the self-cleavage is reported as 0. A57U U62C U102A gave a self-cleavage of 0.09. U52C U100C U102C gave a self-cleavage of 2.57. A57G A107G U119A showed a self-cleavage of 1.21. For C56U C98U U100G, the self-cleavage was 0.05. For U52A A67C A138G, the self-cleavage was 0.05. Work on A50U A77G U102A A140G yielded a self-cleavage of 1.92. For U52C A117C A140G, the self-cleavage was 1.82. With G54U C71U U81C U85A the self-cleavage was 0.03. Variant U52C U100C A124U has a self-cleavage of 0.68. Variant U52C U62C G105U A124G A141U A142G has a self-cleavage of 0.06. A57U A129G A141G showed a self-cleavage of 0. In the case of U52G U73C C113U, the self-cleavage is reported as 1.91. For U52A A64C U104A A138G A142G, the self-cleavage was 0.5. Work on A57G U100A U109C yielded a self-cleavage of 0. C56U A77G G126A showed a self-cleavage of 0.25. In the case of G53U C120A U130C A140G, the self-cleavage is reported as 1.84. C51U C71U U112C U132C gave a self-cleavage of 0.59. For U52A A94U A136G, the self-cleavage was 0.46. Work on A57U A59U A138U yielded a self-cleavage of 0.28. Work on G54A U96C U143A yielded a self-cleavage of 0.02. G54A U73C U104G A138G gave a self-cleavage of 0.38. Variant U52C U96A U115C A121G U143C has a self-cleavage of 0. Work on U52C A78G U108A yielded a self-cleavage of 0.77. With A57G A59U A77U the self-cleavage was 0.38. For G53A A64U U81G A117U, the self-cleavage was 0.45. For A57G U132C A142C, the self-cleavage was 0.95. A57G A65G U73A gave a self-cleavage of 0.06. U52A A64G U115C C128U gave a self-cleavage of 0.17. A57U U85A A107G gave a self-cleavage of 0.03.
